Laboratory results as given in the supplement of paper PMC10369915.
Some of the results follow. No stated cut-off is given here; in the data, active = 3.2 or more and inactive = the rest. Most of these values are background signal.

How the values were obtained:
Assay in all cases: enrichment score (SH2-bound / input frequency) (ratio); bacterial display of known human phosphotyrosine sites (pTyr-Var adds point mutants) read by sequencing; higher = stronger binding; tyrosines were phosphorylated by kinases first
Conditions in all cases: peptide library: Human pTyr
SHP2 C-SH2 domain E139D = molecular target: SHP2 C-SH2 domain E139D
[1] = molecular target: SHP2 C-SH2 domain wild-type
SHP2 N-SH2 domain L43F = molecular target: SHP2 N-SH2 domain L43F
SHP2 N-SH2 domain T42A = molecular target: SHP2 N-SH2 domain T42A
SHP2 N-SH2 domain T52S = molecular target: SHP2 N-SH2 domain T52S
[2] = molecular target: SHP2 N-SH2 domain wild-type

Measured: enrichment score
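Further: displayed peptides selected on beads carrying the immobilized SH2 domain, with library peptides lacking any tyrosine serving as negative controls.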

KDREDDQYSHLQGNQ [CD3G_HUMAN_171]
inactive: SHP2 C-SH2 domain E139D 0.727 | [1] 0.591 | SHP2 N-SH2 domain L43F 0.62 | SHP2 N-SH2 domain T42A 0.651 | SHP2 N-SH2 domain T52S 0.843 | [2] 0.781

AGSPLKAYTPVVVTL [CD11B_HUMAN_594_YA]
inactive: SHP2 C-SH2 domain E139D 1.06 | [1] 1.05 | SHP2 N-SH2 domain L43F 0.929 | SHP2 N-SH2 domain T42A 1.64 | SHP2 N-SH2 domain T52S 0.955 | [2] 0.956

GHLGSEEYDVPPRLS [CBLB_HUMAN_665]
inactive: SHP2 C-SH2 domain E139D 0.47 | [1] 0.386 | SHP2 N-SH2 domain L43F 0.451 | SHP2 N-SH2 domain T42A 0.532 | SHP2 N-SH2 domain T52S 0.613 | [2] 0.697

GGQYGEVYEGVWKKY [ABL1_HUMAN_257]
inactive: SHP2 C-SH2 domain E139D 0.585 | [1] 0.658 | SHP2 N-SH2 domain L43F 0.75 | SHP2 N-SH2 domain T42A 0.598 | SHP2 N-SH2 domain T52S 0.581 | [2] 0.488

GKGHDGLYQGLSTAT [CD3Z_HUMAN_142]
inactive: SHP2 C-SH2 domain E139D 0.721 | [1] 0.731 | SHP2 N-SH2 domain L43F 0.626 | SHP2 N-SH2 domain T42A 0.569 | SHP2 N-SH2 domain T52S 0.537 | [2] 0.693

TKANQELYTTHGLIK [CC105_HUMAN_372_YA]
inactive: SHP2 C-SH2 domain E139D 0.924 | [1] 0.701 | SHP2 N-SH2 domain L43F 0.877 | SHP2 N-SH2 domain T42A 0.793 | SHP2 N-SH2 domain T52S 1 | [2] 1.14

DDDGEITYENVQVPA [CD72_HUMAN_39]
inactive: SHP2 C-SH2 domain E139D 1.24 | [1] 1.07 | SHP2 N-SH2 domain L43F 1.09 | SHP2 N-SH2 domain T42A 1.16 | SHP2 N-SH2 domain T52S 1.12 | [2] 1.12

SSGGEQDYDALNDWG [CDH2_HUMAN_884_YA]
inactive: SHP2 C-SH2 domain E139D 0.716 | [1] 0.5 | SHP2 N-SH2 domain L43F 0.6 | SHP2 N-SH2 domain T42A 0.701 | SHP2 N-SH2 domain T52S 0.681 | [2] 0.857

EAEDENLYEGLNLDD [CD79A_HUMAN_188_YA]
inactive: SHP2 C-SH2 domain E139D 1.12 | [1] 1.25 | SHP2 N-SH2 domain L43F 1.26 | SHP2 N-SH2 domain T42A 1.16 | SHP2 N-SH2 domain T52S 1.07 | [2] 1.34

GSGPQNQYGNVLSLP [CD19_HUMAN_348]
inactive: SHP2 C-SH2 domain E139D 0.788 | [1] 0.649 | SHP2 N-SH2 domain L43F 0.542 | SHP2 N-SH2 domain T42A 0.668 | SHP2 N-SH2 domain T52S 0.545 | [2] 0.553

NDPTAPPYDSLLVFD [CDH2_HUMAN_852]
inactive: SHP2 C-SH2 domain E139D 0.651 | [1] 0.549 | SHP2 N-SH2 domain L43F 0.728 | SHP2 N-SH2 domain T42A 0.604 | SHP2 N-SH2 domain T52S 0.781 | [2] 0.658

TRKHYQPYAPPRDFA [CD28_HUMAN_209]
active: SHP2 N-SH2 domain T52S 3.46 | [2] 3.98
inactive: SHP2 C-SH2 domain E139D 2.62 | [1] 3.04 | SHP2 N-SH2 domain L43F 2.57 | SHP2 N-SH2 domain T42A 2.48

GMAEAITYADLRFVK [CD72_HUMAN_7]
active: [1] 4.81 | SHP2 N-SH2 domain L43F 9.34 | SHP2 N-SH2 domain T42A 7.79 | SHP2 N-SH2 domain T52S 5.88
inactive: SHP2 C-SH2 domain E139D 3.11 | [2] 3.03

IPAAANRYDQERFKG [CDC73_HUMAN_293_YA]
inactive: SHP2 C-SH2 domain E139D 1.05 | [1] 0.924 | SHP2 N-SH2 domain L43F 0.811 | SHP2 N-SH2 domain T42A 0.969 | SHP2 N-SH2 domain T52S 0.848 | [2] 0.822

EYEDENLYEGLNLDD [CD79A_HUMAN_188]
inactive: SHP2 C-SH2 domain E139D 1.28 | [1] 1.18 | SHP2 N-SH2 domain L43F 1.06 | SHP2 N-SH2 domain T42A 1.26 | SHP2 N-SH2 domain T52S 1.49 | [2] 1.34

KRNKPTVYGVSPNYD [ABL1_HUMAN_226]
inactive: SHP2 C-SH2 domain E139D 0.904 | [1] 0.924 | SHP2 N-SH2 domain L43F 0.99 | SHP2 N-SH2 domain T42A 0.996 | SHP2 N-SH2 domain T52S 0.984 | [2] 1.03

DSLLVFDYEGSGSTA [CDH2_HUMAN_860]
inactive: SHP2 C-SH2 domain E139D 0.543 | [1] 0.435 | SHP2 N-SH2 domain L43F 0.44 | SHP2 N-SH2 domain T42A 0.549 | SHP2 N-SH2 domain T52S 0.448 | [2] 0.476

SENEDDGYDVPKPPV [CBL_HUMAN_774]
inactive: SHP2 C-SH2 domain E139D 1.09 | [1] 0.782 | SHP2 N-SH2 domain L43F 0.781 | SHP2 N-SH2 domain T42A 0.705 | SHP2 N-SH2 domain T52S 0.9 | [2] 0.879
